# Test results: article PMC4336329 (PLoS ONE, 2015)
# Among all 310,000 compounds or so, about 2,200 (0.71%) showed an effect of 50% or more. Effects have a minus sign here. Some of the results follow.
# Target: human ether-à-go-go-related gene (hERG) potassium channel (human, UniProt Q12809)
# Test: primary screen, population patch clamp on CHO cells stably expressing hERG
# human ether-à-go-go-related gene (hERG) potassium channel, sequence (Q12809 whole entry, looked up): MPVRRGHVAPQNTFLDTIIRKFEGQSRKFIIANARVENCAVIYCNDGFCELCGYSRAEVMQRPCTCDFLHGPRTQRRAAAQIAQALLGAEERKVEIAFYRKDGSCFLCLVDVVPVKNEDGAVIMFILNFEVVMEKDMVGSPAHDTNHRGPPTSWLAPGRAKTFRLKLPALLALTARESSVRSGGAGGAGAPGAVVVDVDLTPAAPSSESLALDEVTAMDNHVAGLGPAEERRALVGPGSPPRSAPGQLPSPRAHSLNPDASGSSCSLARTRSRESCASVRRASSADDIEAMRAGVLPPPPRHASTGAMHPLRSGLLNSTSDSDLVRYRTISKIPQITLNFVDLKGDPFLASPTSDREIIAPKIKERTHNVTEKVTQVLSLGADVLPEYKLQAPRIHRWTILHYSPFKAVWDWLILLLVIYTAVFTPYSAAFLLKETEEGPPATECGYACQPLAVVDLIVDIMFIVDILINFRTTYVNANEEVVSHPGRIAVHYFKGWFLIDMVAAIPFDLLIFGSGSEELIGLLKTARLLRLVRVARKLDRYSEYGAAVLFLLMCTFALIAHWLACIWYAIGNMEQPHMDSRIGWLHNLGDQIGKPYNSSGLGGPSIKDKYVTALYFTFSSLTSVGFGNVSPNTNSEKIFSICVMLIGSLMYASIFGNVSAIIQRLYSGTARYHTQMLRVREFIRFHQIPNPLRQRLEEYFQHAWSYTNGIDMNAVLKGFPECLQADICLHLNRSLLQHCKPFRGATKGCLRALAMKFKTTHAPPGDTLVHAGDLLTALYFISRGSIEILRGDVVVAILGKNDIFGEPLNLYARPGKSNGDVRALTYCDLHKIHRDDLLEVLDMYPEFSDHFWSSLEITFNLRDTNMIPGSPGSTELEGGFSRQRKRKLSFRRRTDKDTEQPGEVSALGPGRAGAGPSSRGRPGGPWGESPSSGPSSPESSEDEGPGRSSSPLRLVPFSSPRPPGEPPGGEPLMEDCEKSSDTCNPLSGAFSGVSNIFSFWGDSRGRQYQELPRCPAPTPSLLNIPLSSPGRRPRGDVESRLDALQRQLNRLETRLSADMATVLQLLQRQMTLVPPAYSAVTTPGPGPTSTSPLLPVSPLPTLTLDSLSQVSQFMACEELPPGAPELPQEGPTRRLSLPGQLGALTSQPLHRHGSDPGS
row,SMILES,"hERG current change (%, negative = inhibition) at 1uM [%]"
1,Cc1nc(COc2ccc(C(=O)NCc3ccccc3CN3CCCCC3)cc2)cs1,-10.6
2,CCOC(=O)c1c(-c2cccc(N)c2)cn2ccccc12,14
3,CCc1cccc(NC(=O)CCCn2nc(C)c3c(C)n(-c4ccccc4)nc3c2=O)c1,-4.25
4,CCOc1ccc(Cl)cc1CNc1nnnn1CC,16.7
5,COCCn1c(SCC(=O)Nc2cccnc2Cl)nc2ccccc2c1=O,16.9
6,c1ccc2c(NC3=NCCS3)cccc2c1,8.46
7,CC1CCN(C(=O)c2ccc(NS(=O)(=O)c3ccccc3)cc2)CC1,6.83
8,COc1cccc2c1OCC(C(=O)O)C2 (stereo not drawn),22.3
9,COc1ccc(CNc2nc(S(=O)(=O)c3ccccc3)c(Cl)s2)cc1OC,2.1
10,CCOc1ccc(N(CC(=O)N2CCCC2)S(=O)(=O)c2ccc(F)cc2)cc1,-3.22
11,COc1ccc(-c2coc3c(CN4CCCCC4)c(O)c(CN4CCCCC4)c(O)c3c2=O)cc1,-88
12,CC12CN3CC(C)(CN(C1)C3c1c[nH]c3ccccc13)C2=O (stereo not drawn),-5.41
13,CN(C)S(=O)(=O)c1ccc(NC(=S)NC(=O)c2ccc(Br)o2)cc1,14.2
14,Cc1nc(-c2ccccc2)cc(=O)[nH]1,14.8
15,CC1(C)Nc2ccccc2C(=O)N1c1ccc(Br)cc1,13
16,COCCCN1CC(=O)N2C(c3cccc(C)c3)c3[nH]c4ccccc4c3C[C@H]2C1=O (stereo partly drawn),11.4
17,CN(C)CC(C)(C)CNCc1cc(=O)oc2ccc3ccccc3c12,10.1
18,CCOC(=O)Nc1ccc(S(=O)(=O)Nc2cc(C)nc(C)n2)cc1,1.71
19,CCOc1ccc(NC(=O)c2nnn(CC(=O)Nc3ccccc3OCC)c2N)cc1,1.93
20,Cc1ccc(-c2nc(Nc3cccc(C)c3)sc2CC(=O)O)cc1,9.35
21,NS(=O)(=O)c1ccc(CCNc2ncnc3sccc23)cc1,9.58
22,CCN(CC)CCCNC(=O)Cn1nc([N+](=O)[O-])c(Cl)c1C,25.6

row,SMILES,"hERG current change (%, negative = inhibition) at 1uM [%]"
1,CCOC(=O)c1cccc(C(=O)OCC)n1,8.42
2,CC(CCc1ccccc1)NC(=O)COC(=O)c1cccs1 (stereo not drawn),11.7
3,O=C(NCCN1CCOCC1)c1ccc2c(c1)N(Cc1ccccc1)C(=O)c1ccccc1S2,14.6
4,Cc1cccc(-c2noc(CCc3ccccc3)n2)c1,2.05
5,O=C(c1ccco1)N1CCN(C(=O)c2ccc(-c3ccccc3Cl)o2)CC1,-13.8
6,Cc1cc(NC(=O)c2ccccc2)no1,-3.51
7,COC(=O)c1cc(NC(=O)CN(c2cccc(OC)c2)S(=O)(=O)c2ccccc2)ccc1Cl,-6.44
8,Cc1c(NP(=O)(c2ccc(Br)cc2)c2ccc(Br)cc2)c(=O)n(-c2ccccc2)n1C,-14.6
9,Cc1ccc(S(=O)(=O)c2c(C)nn(-c3ccccc3)c2OC(=O)c2ccc(Br)o2)cc1,19.2
10,CCOc1cccc(CN2CCC(Oc3ccc(C(=O)NCc4ccccn4)cc3)CC2)c1,11.8
11,COc1ccc(NC(=O)c2cccnc2N2CCCCC2)cc1,-0.349
12,CCCNCc1cc(OC)c(OCC(=O)NCCc2ccccc2)cc1Br,-4.82
13,Cc1cccc(NC(=O)CN2C(=O)S/C(=C\c3ccc(-c4cccc(C(=O)O)c4C)o3)C2=O)c1,11.2
14,CCC(=O)N/N=C(\C)CC(=O)Nc1ccc2c(c1)OCCO2,18.7
15,O=S(=O)(c1ccc(Cl)cc1)c1nc(-c2ccco2)oc1N1CCCCC1,9.92
16,O=[N+]([O-])c1cccc(-c2nnnn2-c2cccc(F)c2)c1,14.7
17,CC(C)=NNc1nc(-c2ccc([N+](=O)[O-])cc2)cs1,-0.704
18,O=C(Nc1ccccc1Cl)c1ccccc1S(=O)(=O)c1ccccc1[N+](=O)[O-],16.8
19,COc1ccc(NC(=O)c2cc(=O)[nH]c3ccccc23)cc1,17.1
20,Cc1cc(=O)oc(C)c1C(=O)NCCCN1CCN(c2ccccc2F)CC1,-7.44
21,COc1ccc(OC)c(NC(=O)Cn2c(-c3ccc(Cl)cc3)noc2=O)c1,-16.4
22,CN(C1CCCCC1)S(=O)(=O)c1ccc(NC(=O)C2CCCCC2)cc1,3.04

row,SMILES,"hERG current change (%, negative = inhibition) at 1uM [%]"
1,Cc1ccc(C(=O)CCNc2cccc(Br)c2)o1,21.6
2,Cc1ccc(N2CC(C(=O)Nc3nnc(SCc4cccnc4)s3)CC2=O)cc1 (stereo not drawn),13.1
3,CC(=O)c1ccc(S(=O)(=O)NC2CC2)cc1,8.28
4,COc1ccc(-n2nc(C(=O)NCC(=O)N3CCN(C)CC3)c3ccccc3c2=O)cc1,15.1
5,Cc1ccc(OC(=O)c2ccc3nc(C)sc3c2)cc1,10
6,CC1(C)Cc2c(sc(NC(=O)COc3cccc4ccccc34)c2C#N)C(C)(C)N1,9.09
7,CCCCOc1ccc(C(O)(CCN2CCOCC2)c2ccccc2)cc1.Cl (stereo not drawn),3.49
8,Cl.O=C(/C=C/c1cn(-c2ccccc2)nc1-c1cccs1)NCCN1CCOCC1,-1.11
9,O=C(N/N=C/c1nn(-c2ccccc2)cc1-c1ccccc1)c1ccncc1,-1.14
10,CCOC(=O)c1cnc2c(C(F)(F)F)cccc2c1N1CCN(C)CC1.Cl,7.89
11,CC(/C=N/NC(=O)c1ccccc1F)=C\c1ccccc1,10.4
12,O=S(=O)(NC1CCCC1)c1cccc(S(=O)(=O)N2CCC(n3nnc4ccccc43)CC2)c1,5.8
13,Cc1ccc(NC(=O)c2ccc(F)cc2F)cc1NS(C)(=O)=O,12.3
14,Cc1cccc(C)c1NS(=O)(=O)c1ccc(NC(=O)c2ccc(Cl)c([N+](=O)[O-])c2)cc1,-5
15,CN(C)S(=O)(=O)c1cccc(NC(=O)CN2C(=O)NC3(CCc4ccccc4C3)C2=O)c1 (stereo not drawn),15.3
16,COc1cc(OC)cc(C(=O)N=c2sc3ccccc3n2C)c1,18.5
17,COCCn1c(C)cc(C(=O)CSc2nnnn2C2CCCC2)c1C,-58.4
18,Cc1cc(-c2ccc(C)c(S(=O)(=O)NC(C)Cc3ccco3)c2)on1 (stereo not drawn),1.07
19,COc1ccc(C(=O)C2CCCN(Cc3cccn3-c3ccc(Cl)cn3)C2)c(OC)c1 (stereo not drawn),-45.8
20,O=C(COC(=O)c1cc([N+](=O)[O-])ccc1N1CCOCC1)Nc1cccc(F)c1,0.575
21,CC1=NN(C(=O)Cn2ccc([N+](=O)[O-])n2)C(O)(C(F)(F)F)C1 (stereo not drawn),9.1
22,COc1ccc(Cc2nc3ccc(S(N)(=O)=O)cc3[nH]2)cc1OC,-0.589

row,SMILES,"hERG current change (%, negative = inhibition) at 1uM [%]"
1,OC1(c2ccccc2)CN(c2ccccc2)C2=[N+]1CCS2.[Br-] (stereo not drawn),11.6
2,Cc1ccc(C2(C)NC(=O)N(CC(=O)Nc3ccc(Cl)c(S(=O)(=O)N4CCCCC4)c3)C2=O)cc1 (stereo not drawn),6.09
3,CCC(C)NC(=O)CC1Oc2ccc(C)cc2NC1=O (stereo not drawn),6.79
4,CC(=O)Nc1ccc(-c2csc(Nc3ccc(S(N)(=O)=O)cc3)n2)cc1,2.86
5,CC1CC(C)CN(C(=O)CSc2nc(Cc3cccs3)nc3ccccc23)C1 (stereo not drawn),5.63
6,CCCCCCCNC(=O)C1(CC2CC(c3ccccc3)=NO2)CCN(C(=O)c2ccccc2)CC1 (stereo not drawn),-47.1
7,O=C(CCn1ccc2cc(S(=O)(=O)N3CCCC3)ccc21)NCc1cccc(F)c1,16.4
8,CCOC(=O)c1sc(NC(=O)C2CSC3(C)CCC(=O)N23)nc1C (stereo not drawn),-13.9
9,NC(=O)c1sc2nc3c(cc2c1N)CCC3,6.2
10,Cc1cc(C)n2nc(SCC(=O)N(C)C)nc2n1,8.54
11,Nc1ccc(C23CC4CC(CC(C4)C2)C3)cc1,14.4
12,COc1ccc(NC(=O)CCCC2=NS(=O)(=O)c3ccccc3N2)cc1,12.5
13,COC(=O)C1=C(c2ccccc2)C[C@@H]2CC[C@H]1N2C(=O)N1CCCCC1,-0.805
14,O=C(Nc1cccnc1)c1cc2c(s1)-c1ccccc1OC2,6
15,Cc1ccc(S(=O)(=O)N2CCCCC2)cc1NC(=O)c1cccs1,-6.04
16,CCOc1ccc(S(=O)(=O)N2CCOCC2)cc1NC(=O)c1ccccc1F,19.4
17,COc1ccc(Cc2c(Cl)ncnc2Cl)cc1,6.38
18,COc1cccc(CN2CC(C(=O)N3CCN(c4ccc(Cl)cc4)CC3)CCC2=O)c1 (stereo not drawn),-53.3
19,CCC(C)(C)n1nnnc1C(c1ccc(O)cc1)N1CCc2ccccc2C1.Cl (stereo not drawn),4.58
20,COc1ccccc1C(=O)NCCC(=O)NCC(c1ccccc1OC)N1CCCC1 (stereo not drawn),24.1
21,CCOC(=O)c1[nH]c2c(c1-c1ccccc1)C(=O)CC(c1ccc(OCC)cc1)C2 (stereo not drawn),6.72
